The text below walks through data of PubChem BioAssay AID360 (National Center for Advancing Translational Sciences (NCATS), 2006).

In all, about 48,000 compounds went through this assay and about 550 (1.1%) were called active. About 4% were inconclusive and are not listed. Cut-off read from the data, not from the text of the source: active = potency below about 15 µM; inconclusive = mostly about 16 µM to 33 µM; inactive = weaker than that. Some of the results follow.
Potency is the fitted concentration of half-maximal effect.

Chain of UniProt P04062 (P04062 whole entry, looked up): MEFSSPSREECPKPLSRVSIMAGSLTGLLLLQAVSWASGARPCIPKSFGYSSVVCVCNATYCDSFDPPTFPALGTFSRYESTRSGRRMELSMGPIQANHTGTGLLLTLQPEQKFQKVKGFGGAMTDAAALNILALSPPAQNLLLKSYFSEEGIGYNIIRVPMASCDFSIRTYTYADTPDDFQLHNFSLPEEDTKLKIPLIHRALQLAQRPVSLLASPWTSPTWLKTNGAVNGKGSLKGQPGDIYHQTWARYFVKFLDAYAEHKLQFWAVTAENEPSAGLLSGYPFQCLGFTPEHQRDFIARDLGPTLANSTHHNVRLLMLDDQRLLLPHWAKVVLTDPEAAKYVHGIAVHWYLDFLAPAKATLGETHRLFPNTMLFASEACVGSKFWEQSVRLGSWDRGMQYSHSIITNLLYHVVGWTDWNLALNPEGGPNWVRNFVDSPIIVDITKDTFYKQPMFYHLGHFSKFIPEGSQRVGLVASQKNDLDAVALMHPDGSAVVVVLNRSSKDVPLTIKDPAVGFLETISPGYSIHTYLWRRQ

The target in this experiment is Lysosomal acid glucosylceramidase (Homo sapiens) (UniProt P04062). As to the kind of experiment: Glucocerebrosidase.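 Note: the screen sought inhibitors.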 Particulars: purified enzyme, resorufin glucoside fluorescence (screen aimed at inhibitors), 20 min. Put shortly:
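Compounds titrated against 0.2 nM normal enzyme, 30 uM resorufin beta-D-glucopyranoside substrate, citrate/phosphate buffer with taurocholate and tween-20, pH 5.9. Reaction ran 20 min at room temperature; fluorescence (Ex 548/Em 600) gave AC50.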
Turning to `Cn1c(=O)[nH]c(=O)c2c1nc(SCCN1CCCCC1)n2CCCc1ccccc1`, the Potency was inactive: > 76.9 µM.
With `O=C(NCN1CCc2ccccc2C1)c1ccccc1`, the Potency is inactive: > 76.9 µM.
Take `O=C(Cn1ncnn1)OCc1ccccc1Cl`: the Potency was inactive: > 76.9 µM.
The figure for `Cn1c(=O)c2c(nc(CN3CCN(C(=O)c4ccco4)CC3)n2Cc2ccccc2)n(C)c1=O` is inactive: > 76.9 µM; for `COCCNC(=O)C(c1cccs1)N(C(=O)Cn1nnc2ccccc21)c1cccc(C)c1` (stereo not given) it is inactive: > 76.9 µM.
In the case of `Cn1nnnc1SCCNS(=O)(=O)c1ccccc1`, the Potency was inactive: > 76.9 µM.
The figure for `CC1(N2CCCCC2)CC2(O)C(=[N+]1[O-])CCC/C2=N\O` (stereo not given) is inactive: > 76.9 µM; for `CC1Cc2ccccc2N1C(=O)COC(=O)Cn1cnc2ccccc2c1=O` (stereo not given) it is inactive: > 76.9 µM; for `Cc1nc2ccccc2n1-c1nc(-c2ccco2)cc(C(F)(F)F)n1` it is inactive: > 76.9 µM.
The figure for `Cc1ccc(S(=O)(=O)Cc2ccc(C(=O)NCCCN3CCCC3=O)o2)cc1` is inactive: > 76.9 µM; for `O=C(O)CCn1nnc(-c2cccs2)n1` it is inactive: > 76.9 µM.
The figure for `Cc1ccc(-c2noc(CCCC(=O)N3CCOCC3)n2)cc1` is inactive: > 76.9 µM; for `CN(C)Cc1cc(C(C)(C)c2cc(CN(C)C)c(O)c(CN(C)C)c2)cc(CN(C)C)c1O` it is inactive: > 76.9 µM; for `Cc1cc(N2CCN(S(=O)(=O)Cc3ccccc3)CC2)n2ncnc2n1` it is inactive: > 76.9 µM.
`CCCCOc1[nH]c2nc(-c3ccco3)n(Cc3ccco3)c(=N)c2c1C#N`: the Potency was inactive: > 76.9 µM.
The figure for `Cc1cc(NS(=O)(=O)c2ccc(NC(=O)CCc3ccccc3)cc2)no1` is inactive: > 76.9 µM; for `COc1ccccc1-c1nn2c(-c3ccccc3Cl)nnc2s1` it is inactive: > 76.9 µM; for `OC1CN=C2C=CC=CN2C1` (stereo not given) it is inactive: > 76.9 µM.
Take `C/C=C/Cn1c(Br)nc2c1c(=O)n(C)c(=O)n2C`: the Potency was inactive: > 76.9 µM.
For the compound `COc1ccc(OC)c2[nH]c(=O)c(CCNC(=O)c3ccc(Br)o3)cc12`, the Potency is inactive: > 76.9 µM.
The figure for `COC(=O)c1ccccc1COn1c(=O)c[n+]([O-])c2ccccc21` is inactive: > 76.9 µM; for `COC(=O)c1[nH]c2ccc(C)cc2c1NC(=O)CN1CCCc2ccccc21` it is inactive: > 76.9 µM.
The figure for `O=C(COc1ccc(Cl)cc1)OCC(=O)N1CCCC1` is inactive: > 76.9 µM.
For `CCN(CC)c1nc(-c2nn[nH]n2)nc(N(CC)CC)n1`, the Potency was inactive: > 76.9 µM.
`CCOC(=O)Cc1csc(NC(=O)c2ccoc2C)n1`: the Potency is inactive: > 76.9 µM.
